According to patent US20190161551A1 (Regeneron, published 2019):

Target: T1, human brain derived neurotrophic factor (human, UniProt P23560 129-247, limits assumed)
T1 construct: the assays used the R&D Systems protein; also called BDNF; hBDNF
T1 sequence (looked up): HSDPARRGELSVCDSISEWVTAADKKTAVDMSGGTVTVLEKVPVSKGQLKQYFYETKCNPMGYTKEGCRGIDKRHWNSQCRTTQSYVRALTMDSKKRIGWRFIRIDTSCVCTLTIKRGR
Test: ELISA, dose-response of TrkB on plate-coated BDNF
Description: FIG. 5. Consists of FIG. 5A and FIG. 5B which show the ability of anti-mouse TrkB monoclonal antibodies to block interaction between mouse or rat TrkB and its ligand BDNF (Brain Derived Neurotrophic Factor). ELISA-based methods were used to assess the binding of (FIG. 5A with two graphs) mouse TrkB.hFc and (FIG. 5B with two graphs) rat TrkB.mmh to plate coated BDNF in presence of a range of concentrations of Anti-mouse TrkB and isotype control mAbs. […] Molarity (M) indicates antibody concentration for mAbs. Error bars represent Standard Deviation.
Experiments were carried out using the following procedure. Human BDNF was coated at a concentration of 0.5 μg/mL (for blocking mouse TrkB.hFc interaction) or 0.3 μg/mL (for blocking rat TrkB.mmh interaction) in PBS on 96-well microtiter plate and incubated overnight at 4° C. […] In a 96-well dilution plate, 850 pM mouse TrkB.hFc or rat TrkB.mmh was mixed with the three-fold serially diluted anti-mouse TrkB antibodies and control antibody. The final antibody concentrations ranged from 1.69 pM to 100 nM. The protein-antibody mix was incubated at room temperature (RT) for 1 hour. […] Plate-bound mouse TrkB.hFc was detected with HRP-conjugated goat anti-human Fcγ fragment specific antibody (Jackson Immunoresearch) and rat TrkB.mmh was detected with HRP-conjugated anti-histidine antibody (Qiagen). […]

EC50: 0.78 nM
B1: mouse TrkB.hFc (Fc fusion)
chain: not shown
notes: also called mTrkB.hFc; mTrkB-hFc
